Measurements reported in the supplement of paper PMC10126150.
Sequences with one replicate were seen in a single cluster, so their values are uncertain.

System: ATP
Test: switch fluorescence ratio, 500 uM ATP over buffer (Cy3 cluster intensity, sum of 5 cycles each) (fold (ratio)); higher = stronger signal-on switching upon ATP binding; sequences stand for … in TCGTCGGCAGCGTCAGATGTGTATAAGAGACAGTTTTTTTTTTTTTTTTTTTTTTTTT…TC
Conditions: aptamer strand: ATP DNA aptamer (quencher-CACCTGGGGGAGTATTGCGGAGGAAGG + anchor), 100 nM annealed; ATP concentration: 500 uM; one replicate
Method in brief: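 Per cluster, summed Cy3 intensity from the target cycles was divided by that from the buffer cycles to give the fluorescence ratio, then averaged per switch-domain sequence. Clusters outside 100-1000 RFU were excluded. The Cy3-labelled switching-strand clusters, on a modified Illumina MiSeq flow-cell, were annealed to 100 nM quencher-labelled ATP aptamer and imaged in selection buffer, then after 15 min with 500 uM ATP at 22 °C, for five cycles with NaOH stripping and re-annealing between them.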
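Note: ATP exposure 15 min at 22 °C before imaging.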

| Sequence | switch fluorescence ratio |
| --- | --- |
| GAATCAGTGA | 0.988 |
| GGTAAAGAGG | 0.967 |
| GTCCCAGAAT | 0.979 |
| ATGTGCGTGA | 0.992 |
| TCACCGAGAG | 1 |
| GATAATCTAA | 0.968 |
| AGTGCCGGAG | 0.981 |
| TCAGTATTTA | 0.971 |
| TGCCACTGTT | 0.974 |
| TCGCCGGAGG | 1.02 |
| CCAGCAGGCG | 1.25 |
| TTGTGTGGAA | 1.03 |
| GACTCGAAAC | 1.19 |
| GTTTGGCTTA | 0.989 |
| AATAAACTGG | 1.06 |
| TATAGCAGTG | 1 |
| TAGGCCAGGG | 0.98 |
| TTTGTGAAC | 1.04 |
| CAGAGCGATA | 5.83 |
| TGGCGACACT | 0.965 |
| GCATTCTGG | 0.995 |
| ATGCAATGCA | 0.956 |
| TTGGCTTAGC | 0.987 |

| Sequence | switch fluorescence ratio |
| --- | --- |
| TTAGTAGGCG | 0.954 |
| TTGTCTCATG | 0.981 |
| CTGAAGGCGG | 1.03 |
| CCAACGGGAT | 3.02 |
| CAGCCCTGCC | 1.11 |
| GCCCCCCACC | 1.56 |
| GGTTTCTTAC | 1.05 |
| CGAAACACGG | 1.06 |
| GGCTAAATCT | 1.04 |
| ACCCCCTTAA | 1.36 |
| GTATCGTACA | 1.03 |
| AAGTAAGAGG | 0.959 |
| GGGCAACTCG | 1.01 |
| ATGAAGACAA | 1.01 |
| TATTAGTCTG | 0.968 |
| GTGTGTACC | 1 |
| CTACCATGGT | 1.04 |
| CGAGCTTCAG | 0.995 |
| TTAACCACAC | 1.16 |
| TTCATAAGTT | 1.03 |
| TATTTATAAT | 0.985 |
| CGCAGACTT | 1.42 |
| AGTACGGAT | 0.986 |

| Sequence | switch fluorescence ratio |
| --- | --- |
| CGGATCTTGA | 0.979 |
| GATGACGGTT | 0.971 |
| CGTGAACCTT | 1.79 |
| TTGCTAAATC | 1.01 |
| CAGTTCCAGG | 1.24 |
| GACCCACGTG | 1.01 |
| TTAACCGTTG | 1 |
| CCACGCCTTC | 1.79 |
| TGTTTATGTA | 0.981 |
| CTTTCCCTGC | 1.16 |
| GGACCGCGGT | 0.994 |
| TTAGTGTCTG | 0.991 |
| ACCGCACAGT | 1.68 |
| ACTGGTGAAA | 1.05 |
| CATGGCAAAC | 3.02 |
| GGCGCAGGGG | 1.19 |
| CTACATCTCG | 0.992 |
| GCCTCTAGGT | 0.974 |
| GGGGAAGCTA | 0.965 |
| GGAACTGGAC | 1.09 |
| TGGGATAATT | 0.967 |
| GGTTAGGTAG | 0.963 |
| TTCTTCCGAT | 1.61 |

| Sequence | switch fluorescence ratio |
| --- | --- |
| ATTTAACCGT | 0.958 |
| TACAGTTGGA | 1.03 |
| AAACCAGTCC | 2.07 |
| AGACCGCAGC | 2.2 |
| CACGGTCACT | 1.36 |
| AATTACTGT | 1.02 |
| TGAAGGGCTC | 0.976 |
| GTTCGCTTCC | 2.11 |
| GAAAGAGTCA | 0.94 |
| ATAAGGAACA | 0.962 |
| GATCTTAAGA | 1.01 |
| TGGGCATTCT | 1.05 |
| TTGTGATGAT | 1.08 |
| TAGTGAGGAA | 0.968 |
| GTAGTCTTTC | 1.02 |
| TGGAGAGGAA | 0.997 |
| TTTATGCGCG | 0.96 |
| GACGGCGAGG | 1 |
| CGTTAATTAA | 0.958 |
| TCATTTTGGC | 1.06 |
| GTATTACATC | 0.981 |
| ATGCTAGCTT | 1.04 |
| TTTACCCTTA | 1.02 |

| Sequence | switch fluorescence ratio |
| --- | --- |
| AGACAAAGGG | 1.02 |
| CCGTGAAAAT | 0.992 |
| CTAGAAAGAG | 0.974 |
| AGAAATCTCT | 1.03 |
| TCAGCAAATC | 3.02 |
| CGTCGGTGTA | 0.971 |
| TACGGTTCG | 0.982 |
| TACCAGTCGG | 1.01 |
| AAGTGGGGGC | 1.04 |
| CGAAGTGAGT | 1.05 |
| AGATTAGTAG | 1.02 |
| TCTCTTGGC | 1.04 |
| ACTTTCAGTT | 1.02 |
| AAATGAGAAT | 1.04 |
| GTCGACTATT | 1 |
| TGCTGGGCGC | 0.976 |
| ACCGTGCTAG | 1 |
| AATTACTAAA | 1.04 |
| ACATTCGATA | 0.986 |
| CATATCGATA | 1.03 |
| ACATTGAGAA | 0.991 |
| GTTTATTAGG | 0.992 |
| ATTCTTGGAA | 1 |

| Sequence | switch fluorescence ratio |
| --- | --- |
| GTGCTTTCCT | 1.05 |
| CACTATTTCT | 1.01 |
| GGCTTCAGCA | 0.993 |
| ATTTTGTTCC | 1.03 |
| AATAAGTGTC | 1.2 |
| CGATATTTCA | 0.995 |
| TATATAGGGT | 1 |
| TATTTGCTT | 1 |
| ATACCTATAA | 0.991 |
| GGCTTTGCG | 1.01 |
| CGCTTATCTC | 2.01 |
| ATGAAGAGA | 1.03 |
| TCGCGCAGTA | 1.05 |
| ATCATCACTA | 1.01 |
| TGACTTATAT | 1.06 |
| TGGTGGTGCG | 0.986 |
| AAAGGGCAAC | 0.993 |
| AACGGCCT | 1.01 |
| ACGTCCACGG | 1.16 |
| ATACCTTTGT | 0.99 |
| AAGTCTGGAC | 0.989 |
| TTACATTCTC | 1.05 |
| AAGGAGCGCC | 0.98 |

| Sequence | switch fluorescence ratio |
| --- | --- |
| AATACGTGTT | 0.994 |
| AAACTAATCG | 0.941 |
| ACTCTATC | 1.1 |
| TAGTCAACG | 0.995 |
| TCAGCATGTT | 1 |
| ACTGAGTATC | 1.01 |
| ACTGATAGGA | 1.07 |
| ATTTCCTGTA | 1.01 |
| CTTATATAAG | 1.06 |
| TACCGAACAG | 1.2 |
| AAGTACGTAC | 1.27 |
| TCCCCTTCGT | 1.06 |
| TTACTCCGAA | 2.26 |
| ACGTATAGCG | 0.969 |
| ATCAAGGGCA | 0.982 |
| TGACGCGCGG | 0.988 |
| GATAAAGACT | 0.993 |
| CGTCATCCTG | 1.06 |
| ACGCTTGAGA | 1.02 |
